In patent US20150258059A1, “ANTIMICROBIAL AND RADIOPROTECTIVE COMPOUNDS” (BioDiem, Ltd, priority 2001, published 2015):
Converted amounts (≈) assume the structure as drawn. Like-named read-outs stand apart in the source and are kept apart here.

Test system: Klebsiella oxytoca
Experiment: microbe, parasite or virus in culture
Format: cell-based
Conditions: Klebsiella oxytoca

C/C(=C\c1ccc2c(c1)OCO2)[N+](=O)[O-] [Compound (1)]
MIC (after 12 weeks continuous exposure, read-out: Standard MIC Final): 256 mg/L (≈ 1240 µM)
MIC (before exposure, MHB, read-out: Standard MIC Initial): 128 mg/L (≈ 618 µM)
